One test has as its target T1, GFP-USP10^1-28 (human).
T1 chain: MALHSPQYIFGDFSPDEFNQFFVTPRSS
The test can be described thus: BLI. (BLI is a label-free optical method that tracks binding on a fibre tip over time.)

Another test has as its target T2, GFP-Caprin-1^356-386 (human).
T2 chain: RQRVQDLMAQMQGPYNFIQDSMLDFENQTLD
The test can be described thus: BLI.

B1: G3BP1-NTF2 ([…]) (domain or fragment)
chain: not shown
For B1, the 50% effective concentration (EC50) with GFP-USP10^1-28 is 20 ± 10 nM; with GFP-Caprin-1^356-386, 180 ± 110 nM.

For orientation: EC50 means the concentration giving half of the maximal effect.

Values taken from publication doi:10.1101/2021.02.05.429362 (bioRxiv, 2021).
